Data: paper PMC4336329 (PLoS ONE, 2015)
The campaign covered roughly 310,000 compounds. About 14,000 (4.5%) showed an effect of 50% or more. The effect is printed as a negative number. The list shows a part of the results.

biological target: human ether-à-go-go-related gene (hERG) potassium channel (human, UniProt Q12809); assay: primary screen, population patch clamp on CHO cells stably expressing hERG
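Also: peak tail current of the secondary pulse compared with the same well before compound.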

Sequence of human ether-à-go-go-related gene (hERG) potassium channel (Q12809 whole entry, looked up): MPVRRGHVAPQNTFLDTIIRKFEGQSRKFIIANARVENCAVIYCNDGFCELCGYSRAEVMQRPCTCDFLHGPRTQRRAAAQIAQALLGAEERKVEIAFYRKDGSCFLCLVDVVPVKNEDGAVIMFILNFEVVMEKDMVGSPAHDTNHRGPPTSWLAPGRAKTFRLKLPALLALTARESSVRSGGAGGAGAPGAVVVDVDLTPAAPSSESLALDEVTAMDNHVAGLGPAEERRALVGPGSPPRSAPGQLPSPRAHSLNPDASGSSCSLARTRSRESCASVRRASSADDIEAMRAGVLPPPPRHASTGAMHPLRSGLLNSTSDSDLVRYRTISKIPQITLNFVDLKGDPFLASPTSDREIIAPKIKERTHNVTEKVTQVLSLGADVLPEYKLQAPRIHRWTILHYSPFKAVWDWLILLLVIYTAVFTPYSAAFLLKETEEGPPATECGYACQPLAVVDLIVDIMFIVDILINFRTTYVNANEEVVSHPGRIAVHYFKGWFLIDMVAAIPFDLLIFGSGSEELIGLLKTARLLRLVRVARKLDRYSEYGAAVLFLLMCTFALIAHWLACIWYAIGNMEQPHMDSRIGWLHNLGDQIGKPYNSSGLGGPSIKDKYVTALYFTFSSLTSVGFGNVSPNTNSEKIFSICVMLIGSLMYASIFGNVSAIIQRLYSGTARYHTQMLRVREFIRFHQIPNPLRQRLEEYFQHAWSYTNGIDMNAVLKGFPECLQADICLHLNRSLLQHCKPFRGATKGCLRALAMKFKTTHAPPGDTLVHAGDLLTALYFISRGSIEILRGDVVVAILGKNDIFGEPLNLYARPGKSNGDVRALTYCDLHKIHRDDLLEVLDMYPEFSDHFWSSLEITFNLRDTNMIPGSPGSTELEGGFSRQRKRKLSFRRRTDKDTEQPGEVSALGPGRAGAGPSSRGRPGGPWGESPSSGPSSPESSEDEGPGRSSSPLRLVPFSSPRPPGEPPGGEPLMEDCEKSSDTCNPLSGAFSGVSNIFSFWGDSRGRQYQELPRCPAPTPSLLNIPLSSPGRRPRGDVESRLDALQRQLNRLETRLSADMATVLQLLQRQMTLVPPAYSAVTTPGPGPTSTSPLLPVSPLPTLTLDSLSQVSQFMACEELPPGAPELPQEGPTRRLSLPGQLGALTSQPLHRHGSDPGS

Row | Compound | hERG current change (%, negative = inhibition) at 10uM
1 | Cc1cccc(C)c1N=Cc1c(C(F)(F)F)[nH][nH]c1=O | 11.3%
2 | Clc1ccc(N2CC2c2ccncc2)cc1 (centres unmarked) | -7.29%
3 | COc1cc(/C=C(/C#N)C(=O)NC(C)c2ccccc2)cc(OC)c1O (centres unmarked) | -30.6%
4 | CC(=O)O.CN=C(N)NCCC[C@H](N)C(=O)O | 23%
5 | COc1cc(NC(=O)Nc2c(C)n(C)n(-c3ccccc3)c2=O)cc(OC)c1OC | 12.3%
6 | CCO[C@H]1OC(C(N)=O)=C[C@@H](c2csc3ccccc23)[C@@H]1CCCO | -22.6%
7 | Cc1ccc(COC(=O)c2ccc3ccccc3n2)cc1 | 6.04%
8 | CCCCn1c(N)c(NCCC)c(=O)[nH]c1=O | 8.61%
9 | CCN(CC)c1ccc(C(=O)NNC(=O)CN2C(=O)NC(C)(c3ccccc3)C2=O)cc1 (centres unmarked) | -0.93%
10 | Brc1ccc(CSc2nnc(-c3ccco3)o2)cc1 | -1.05%
11 | Cc1[nH]c(=O)c(S(=O)(=O)c2ccccc2)c(C)c1Cl | 17%
12 | COc1ccc(/C(C)=N/OCC(=O)N=Nc2c(O)[nH]c3ccccc23)cc1 | -3.96%
13 | CC(=O)c1cccc(NC(=O)/C(=C\c2ccco2)NC(=O)c2ccco2)c1 | -64.3%
14 | COc1ccc([N+](=O)[O-])cc1NCC(=O)Nc1cc(S(=O)(=O)N2CCCCC2)ccc1C | 2.05%
15 | N#C/C(=C\c1ccc(F)cc1)c1nc(-c2ccco2)cs1 | 18.5%
16 | Cc1ccc(Nc2nc(-c3sc(NC(=O)c4cccc(Cl)c4)nc3C)cs2)cc1 | 6.36%
17 | CSc1nc(C)c(C(=O)C[n+]2ccc(C)cc2)cc1C#N.[Br-] | -44.4%
18 | CN(Cc1ccccc1)c1nc(CN2CCOCC2)nc2scc(-c3ccccc3)c12 | -24.9%
19 | O=C(O)c1cccc(Cn2c(Cl)c(/C=N/NC(=O)c3ccco3)sc2=O)c1 | 38.3%
20 | Cc1ccccc1-n1c(=O)cc(NCc2ccc3c(c2)OCO3)[nH]c1=O | -6.43%
21 | COc1ccccc1CNC(=O)/C=C/c1ccc(S(=O)(=O)NCc2ccco2)cc1 | -21%
22 | Cc1cnc(NC(=O)CN2CCCCC2)s1.[O-][Cl+3]([O-])([O-])O | 14.6%
23 | O=C(NCc1nc2ccccc2[nH]1)C1=C[C@H](c2ccc3c(c2)OCO3)C[C@H](OCCCCO)O1 | -37.2%

Row | Compound | hERG current change (%, negative = inhibition) at 10uM
24 | N#Cc1ccsc1NC(=O)CN1CCN(S(=O)(=O)c2ccccc2C(F)(F)F)CC1 | -56.9%
25 | O=C(NCC(c1cccnc1)N1CCN(c2ccccc2F)CC1)c1cccc(Cl)c1 (centres unmarked) | -47.2%
26 | c1ccc(COCCC2CO2)cc1 (centres unmarked) | 5.49%
27 | O=C(Nc1ccon1)C(Sc1ccccc1)c1ccccc1 (centres unmarked) | -8.32%
28 | O=C(/C=C/c1ccccc1)c1ccc2c(c1)OCO2 | -5.68%
29 | COC(=O)c1ccc(NC(=S)NCC2CC2)cc1 | 17.4%
30 | CCN1CCN(C(=O)/C=C/c2ccc([N+](=O)[O-])cc2)CC1 | -64.2%
31 | COCc1nnc(NC(=O)c2c(-c3c(Cl)cccc3Cl)noc2C)s1 | 10.5%
32 | COc1cc(C(=O)OCC(C)=O)c([N+](=O)[O-])cc1OC | 16.1%
33 | O=C(CNC(=O)c1ccccc1Br)N/N=C/c1cccs1 | 4.8%
34 | CC(OC(=O)c1ccc(OCC2CCCO2)cc1)C(=O)N(C)Cc1ccccc1 (centres unmarked) | -14.5%
35 | Cc1nc2c(nnn2Cc2ccccc2)c(=O)[nH]1 | 14.3%
36 | CC(C)c1ccc2c(c1)c(SC(C)(C)C)c(CC(C)(C)C(=O)O)n2Cc1ccc(Cl)cc1 | 2.82%
37 | COc1cc(NS(=O)(=O)c2ccc(NC(=O)C34CC5CC(CC(C5)C3)C4)cc2)ncn1 | -4.59%
38 | COC(=O)c1sccc1-n1cccc1C(=O)C(=O)N1CC(C)OC(C)C1 (centres unmarked) | 20.9%
39 | O=C1N(c2ccccc2)c2ccccc2C1(O)C(F)(F)F (centres unmarked) | 4.2%
40 | CC(=O)C1(C)N(O)C(C)(C)C(c2cccs2)=[N+]1[O-] (centres unmarked) | 18.2%
41 | CCN(CC)Cc1cc(CC(C(N)=O)C(N)=O)ccc1OC | 8.16%
42 | O=C(COC(=O)c1ccccc1)NCc1cccs1 | 21%
43 | COc1cc(Cl)c(C)cc1NC(=O)CSC | -4.31%
44 | CCN(CC)C(=O)c1ccc(CS(=O)(=O)c2ccc(OC)cc2)o1 | -0.122%
45 | N#C/C(=C\N1CCOCC1)c1ccccc1 | -24.7%
46 | CCCSC1C(C)=C(C)C(=O)N1Cc1ccccc1 (centres unmarked) | 3.05%

Row | Compound | hERG current change (%, negative = inhibition) at 10uM
47 | Cc1nc(NC(=O)c2ccc3c(c2)OCCO3)ccc1Br | 0.941%
48 | COc1ccccc1C(=O)n1nc(-c2cccnc2)nc1N | 8.11%
49 | COc1ccc(C(=O)Nn2c(SCC(=O)NC3CCCCC3)nc3ccccc3c2=O)cc1 | 0.473%
50 | COc1ccc(C(=O)NCCc2nnc(SCC(=O)Nc3ccccc3C(C)C)n2C)cc1 | -13.3%
51 | COc1ccc(-c2c3c(nc4sc5c(=O)[nH]c(C)nc5c24)CCC3)cc1 | 8.4%
52 | COc1ccc(C(=O)O/N=C2\C(=O)N(C)c3ccccc32)cc1 | -9.98%
53 | CN(CC(=O)Nc1ccc(Cl)cc1)C(=O)c1ccc(S(=O)(=O)Nc2ccccc2)cc1 | -9.55%
54 | CC(C)(C)C(=O)NC(NC(=O)C(C)(C)C)c1ccc([N+](=O)[O-])cc1 | 8.18%
55 | O=C(NC(=O)N1CCN(c2cccc(Cl)c2)CC1)c1ccc(Cl)cc1 | -44.3%
56 | S=C(Nc1ccc(Cl)cc1)N1CCCCC1 | 4.69%
57 | Cc1nn(C)cc1CN(C)C(=O)c1nn2c(c1Br)NC(c1cccs1)CC2C(F)(F)F (centres unmarked) | -18.3%
58 | CC(c1ccc(Cl)cc1)n1c(-c2ccc3ccccc3n2)n[nH]c1=S (centres unmarked) | 19%
59 | Cc1onc(-c2c(F)cccc2Cl)c1C(=O)N1CCSCC1 | 17.5%
60 | O=C(O)C1=C(C(=O)N2CCN(C(=O)c3ccco3)CC2)CCCC1 | 1.67%
61 | O=C(Cn1nc(Cc2cccnc2)c2ccccc2c1=O)N1CCN(c2ccccn2)CC1 | -23.1%
62 | O=C(O)c1ccc(NC(=S)N2CCCCC2)cc1 | 19.8%
63 | Cc1ccn2c(CNCC3OCCc4ccccc43)c(C(=O)N3CCCCCC3)nc2c1 (centres unmarked) | -62.9%
64 | COc1ccc(C(=O)NCC(=O)OCC(=O)c2ccc3c(c2)OCCO3)cc1 | -5.36%
65 | O=C(COC(=O)c1cc(=O)[nH]c2ccccc12)NC(=O)NC1CCCCC1 | -3.63%
66 | CCN(CC)C(=O)CCc1nnc(Cc2cccc(C(F)(F)F)c2)o1 | 11.5%
67 | COc1ccccc1NC(=O)NC1CCS(=O)(=O)C1 (centres unmarked) | 16.2%
68 | COc1ccc(CNC(=O)CN2CCN(C(c3ccccc3)c3ccccc3)CC2)cc1 | 10.3%
69 | O=C1c2ccccc2NC(c2ccccn2)N1c1ccccc1F (centres unmarked) | 10.9%

Row | Compound | hERG current change (%, negative = inhibition) at 10uM
70 | O.O=C1NC2(O)C(=O)c3ccccc3C2(O)N1 (centres unmarked) | 11%
71 | Cn1cccc1CC(=O)NNC(=S)Nc1ccc(F)cc1 | 5.91%
72 | O=C(CNC(=O)c1ccco1)NCC(=O)OCc1ccc(Cl)cc1 | -11.1%
73 | COc1ccc2c(=O)c3c(=O)n(-c4ccccc4)c(-c4ccc(C)cc4)nc3oc2c1 | 11.3%
74 | CN(CC(=O)Nc1ccc(F)c(F)c1F)C(=O)CCCc1nc2ccccc2c(=O)[nH]1 | -20.6%
75 | Cc1cc(C)c(C)c(S(=O)(=O)NCC(=O)Nc2sc3c(c2C(N)=O)CCCC3)c1C | 25.4%
76 | Cc1nc(C)c(C(=O)O)s1 | 18.8%
77 | COc1ccc(S(=O)(=O)Nc2ccc(S(=O)(=O)Nc3nccs3)cc2)cc1 | 19.9%
78 | Cc1cc(C)nc(N2CCN(c3nnnn3-c3ccccc3)CC2)n1 | 9.05%
79 | CCC(C)(C)NC(=O)CN(CC1CCCO1)C(=O)CCC(=O)Nc1nccs1 (centres unmarked) | 7.52%
80 | O=C(CSc1nnc(CNC(=O)c2cccs2)o1)NCc1ccc(F)cc1 | -11.2%
81 | COc1cc(NC(=O)Cc2ccccc2)c(C(=O)O)cc1OC | 14.2%
82 | CCOC(=O)C1CCN(C2=NC(=O)/C(=C/c3ccccc3OC)S2)CC1 | -22.9%
83 | Cc1noc(C)c1COc1cccc(C(=O)NCc2ccccc2Cl)c1 | -11.3%
84 | CC1CC(C)CN(C(=O)c2cc3c(=O)n4ccccc4nc3s2)C1 (centres unmarked) | -27%
85 | CCOC(=O)C1=CC[C@H]2c3c(c4ccc(OC)cc4n3C)C(=O)C1N2S(=O)(=O)c1ccc(C)cc1 | -15.6%
86 | O=C(N/N=C/c1cc2ccccc2nc1Cl)[C@H]1C[C@@H]1c1ccccc1 | 2.36%
87 | COc1ccc2c(c1)/C(=C/c1cnc[nH]1)C(=O)N2 | 1.23%
88 | CC1=C(C)CC(C(=O)NNC(=O)c2ccccc2O)C(C(=O)O)C1 (centres unmarked) | 7.38%
89 | Cc1nn(CC(=O)N(C)C2CCS(=O)(=O)C2)c(C)c1[N+](=O)[O-] (centres unmarked) | 19.3%
